These results are taken from patent US8367727B2, “Method of using abscisic acid to treat diseases and disorders” (priority 2006, dated 2013).

This data set has as its system PPAR γ flfl; MMTV-Cre+ and PPAR γ flfl; MMTV-Cre- mice. In words: High-fat feeding of PPAR γ flfl; MMTV-Cre+ and MMTV-Cre- mice for 28 weeks.
[1] abbreviates: MMTV-Cre+ and MMTV-Cre-, 28 weeks.
Setting [2] is: mice expressing PPAR γ in immune cells.

SMILES strings stand for the structures.

Turning to `CC1=CC(=O)CC(C)(C)C1(O)/C=C/C(C)=C\C(=O)O` (racemic) [ABA, abscisic acid], under setting [1], the body weights result is recorded as “did not increase body weights” and the food intake result is recorded as “did not effect food intake”. Besides, the “infiltration of F4/80hi into WAT” value (PPAR γ fl/fl, MMTV-Cre+ mice) is “abrogated the ability of ABA to suppress infiltration”. For the same compound, where the note is “PPAR γ fl/fl, MMTV-Cre- mice”, the “amount of F4/80hi macrophages” value is “significantly decreased” and the “total SVF macrophage infiltration” value was “significantly decreased”. Moreover, under “deficiency of PPAR γ in immune cells (MMTV-Cre+)”, the “normalization of blood glucose 90 minutes after intraperitoneal GTT” value is on record as “abrogated ABA-induced normalization of fasting blood glucose concentrations”. Under setting [2], the “WAT MCP-1 levels” value is “decreased both WAT and plasma MCP-1 levels”; the “plasma MCP-1 levels” value was “decreased both WAT and plasma MCP-1 levels”. Moreover, under “tissue-specific PPAR γ null mice”, the “ability to suppress expression of MCP-1 in WAT” value is given as “significantly impaired”.
